# Test results reported in PubChem BioAssay AID463173 (ICCB-Longwood Screening Facility, Harvard Medical School, 2010).
# The whole screen tested about 52,000 compounds, of which about 1,700 (3.3%) were called active. Rule as the data show it: active = survival mostly below about 52% (no sharp cut-off); inactive = mostly above about 56%. The list shows a part of the results.
# Test system: Wild type
# Test: growth inhibition of S. aureus wild type versus tarO mutant, primary screen, teichoic acid synthesis inhibitors, RN4220, OD600 (AID 463173)
# Settings: S. aureus RN4220 wild type/DeltatarO growth, OD600, 18 h, stronger effect = lower value, screened at 18.75 µg/mL (by protocol)
row,SMILES,survival
1,O=C(NC1CC(=O)N(c2ccc(Cl)cc2)C1)C1CCCCC1 (centres undefined),inactive: 85%
2,COc1cccc(NS(=O)(=O)c2cc(-c3cnc(C4CC4)o3)ccc2C)c1,inactive: 73%
3,COc1ccc(-c2noc(C3CC(=O)N(c4ccc5c(c4)OCCO5)C3)n2)c(OC)c1 (centres undefined),inactive: 88%
4,OCCCCNc1cccc2ccccc12,inactive: 116%
5,O=C(O)CSc1nc2ccccc2nc1N1CCCCC1,inactive: 62%
6,COc1ccc(CCNC(=O)CSc2cn(CCNC(=O)c3ccc(OC)c(OC)c3)c3ccccc23)cc1OC,inactive: 71%
7,COC(=O)c1c(NC(=O)/C(C#N)=C/c2ccc(OC)cc2)sc2c1C(C(=O)OC)CC2 (centres undefined),inactive: 71%
8,CCc1ccccc1NC(=O)[C@H](Cc1ccccc1)N1Cc2ccccc2C1=O,inactive: 87%
9,CCOc1ccc(NC(=O)c2oc3ccccc3c2NC(=O)C(C)Oc2ccccc2)cc1 (centres undefined),inactive: 94%
10,Cc1cccc(C)c1NC(=O)CSc1nccn1C,inactive: 66%
11,CCOc1ccc(CNC(=O)c2cccc(Nc3nc4ccccc4n4nnnc34)c2)cc1OC,inactive: 66%
12,Cc1ccc(C)c(CN2C(=O)c3ccccc3S(=O)(=O)c3ccc(C(=O)N4CCN(Cc5ccccc5)CC4)cc32)c1,inactive: 80%
13,CC(C)Cn1c(SCc2cccc(F)c2)nc2ccsc2c1=O,inactive: 91%
14,Cc1ccc2c(=O)cc(C(=O)Nc3ccc(S(=O)(=O)N4CCCC(C)C4)cc3)oc2c1C (centres undefined),inactive: 81%
15,CC(=O)c1cc2c(cc1N/C(=N/S(=O)(=O)c1ccc(C)cc1)c1ccc(Cl)cc1)OCO2,active: 10%
16,O=C(CCn1c(=O)c2cccn2c2cccnc21)NCc1cccc(Br)c1,inactive: 92%
17,CC1Cc2cc(S(=O)(=O)CCC(=O)Nc3ccc(OC(F)(F)F)cc3)ccc2N1C(=O)C1CC1 (centres undefined),inactive: 80%
18,NC(=O)c1noc(C(=O)N(c2ccc(OC(F)(F)F)cc2)C(C(=O)NC2CCCC2)c2c[nH]c3ccccc23)c1N (centres undefined),inactive: 123%
19,COc1ccc(Cc2nc3ccc(C(=O)NCCc4ccc(Cl)cc4)cc3o2)cc1,inactive: 71%
20,CCN(C(=O)CCS(=O)(=O)c1cc(Br)cc2c1N(C(=O)C1CC1)CC2)c1cccc(C)c1,inactive: 78%
21,COc1ccc(-c2cn3c(n2)sc2cc(C(=O)NCc4ccccc4)ccc23)cc1,inactive: 89%
22,Cc1ccc(CNc2c(C)c(C)nc3nncn23)cc1,inactive: 86%
23,COc1ccc(OC)c(C2CC(=O)Nc3ccc4ccccc4c32)c1 (centres undefined),inactive: 95%

row,SMILES,survival
1,CC(NC(=O)c1c(O)nc2ccccn2c1=O)c1ccccc1 (centres undefined),inactive: 61%
2,O=C(c1ccco1)N1CCN(C(c2ccccc2)c2nnnn2Cc2ccccc2)CC1 (centres undefined),inactive: 102%
3,CCOc1ccccc1N1CC(c2nc3ccccc3n2CCCCOc2ccccc2)CC1=O (centres undefined),inactive: 73%
4,COc1ccc(C2c3cc(OC)c(OC)cc3CC(=O)N2c2cccc(C#N)c2)cc1 (centres undefined),inactive: 84%
5,COc1ccccc1C1=Nn2c(nc3sc(C(=O)Nc4ccccc4Cl)c(C)c3c2=O)SC1,inactive: 90%
6,Cc1ccc(C)c(C(=O)N2CCC(c3nc4c(nnn4Cc4ccccc4)c(=O)[nH]3)CC2)c1,inactive: 13%
7,CCOCCCn1c(SCC(=O)Nc2ccccc2OC)nc2c(oc3ccccc32)c1=O,inactive: 81%
8,COc1cc(Nc2nc3ccc(Cl)cc3nc2-n2nc(C)cc2C)cc(OC)c1,inactive: 93%
9,CCOC(=O)c1cccc(NC(=O)c2cc(C)nc3c2c(C)nn3-c2ccc(C)cc2)c1,inactive: 68%
10,Cc1ccc(Cl)cc1NC(=O)CCn1cnc2ccccc2c1=O,inactive: 72%
11,CCOC(=O)c1ccc(NC(=O)C2=C(C)C(=O)OC23CCN(C(C)=O)CC3)cc1,inactive: 66%
12,O=C(O)C(F)(F)C12OC3C4C5CC(C6C5C3C61)C42 (centres undefined),inactive: 106%
13,O=C(CN1C(=O)COc2ccc(S(=O)(=O)NC3CCCC3)cc21)NCc1ccccc1Cl,inactive: 69%
14,O=C(O)c1c2c(nc3ccccc13)-c1ccccc1CC2,inactive: 119%
15,CCc1cccc(C)c1NC(=O)CSc1n[nH]c(-c2ccccc2)n1,inactive: 71%
16,Cn1ncc2c(Nc3cccc(C#N)c3)ncnc21,inactive: 93%
17,Cc1cc(C)cc(NC(=O)C(=O)NCC(c2cccnc2)N2CCOCC2)c1 (centres undefined),inactive: 108%
18,COc1cc(NC(=O)CCN2CCN(c3ccccc3)CC2)cc(OC)c1,inactive: 131%
19,Cc1ccccc1OCCSc1nnc(-c2cccs2)o1,inactive: 111%
20,CCCc1nc(=S)c2ccccc2[nH]1,inactive: 99%
21,COc1ccc(Cl)cc1NC(=O)Cn1c(=O)n(Cc2ccc(F)cc2)c(=O)c2cccnc21,inactive: 74%
22,CC(=O)N1CCN(CC(O)COc2ccc(Br)cc2)CC1 (centres undefined),inactive: 105%
23,COC(=O)C1(CO)NC(c2ccccc2F)C2C(=O)N(c3ccccc3)C(=O)C21 (centres undefined),inactive: 108%

row,SMILES,survival
1,O=C(Cn1nnc(-c2cccnc2)n1)NCC1CCCO1 (centres undefined),inactive: 104%
2,Cc1ccc(NC(=O)Cn2c(=O)n(CCC(C)C)c(=O)c3cccnc32)cc1C,inactive: 90%
3,CCC(C(=O)NCCC(C)C)N(C(=O)Cn1nnc(-c2ccc(C)cc2)n1)c1cccc(O)c1 (centres undefined),inactive: 70%
4,COc1ccccc1N1CCN(C(=O)Cn2c(=O)nc(-c3ccccc3)c3ccccc32)CC1,inactive: 74%
5,CC1CN(C(=O)N2CCC(C(=O)NCc3ccccc3F)CC2)c2cc(Cl)ccc2O1 (centres undefined),inactive: 96%
6,COc1cccc(NC(=O)N(Cc2cc3ccc(C)cc3n3nnnc23)CC2CCCO2)c1 (centres undefined),inactive: 104%
7,CCOc1ccc(NC(=O)C(C)n2c(=O)cc(-c3ccccc3)c3c(C)nn(C)c32)cc1 (centres undefined),inactive: 72%
8,CCOC(=O)c1c(C)[nH]c(C)c1S(=O)(=O)N1CCCC(C(=O)N2CCN(c3cccc(Cl)c3)CC2)C1 (centres undefined),inactive: 89%
9,COc1ccccc1C(=O)Nc1ccc(-c2cc(C(F)(F)F)nn2-c2ccccc2)cc1,inactive: 39%
10,O=C(NCc1ccccc1Cl)c1ccc2c(c1)NC(=O)C(CS(=O)(=O)Cc1ccc(Cl)cc1)N2 (centres undefined),inactive: 72%
11,O=C(Nc1ccc(F)c(F)c1)C(c1ccccc1)N1Cc2ccccc2C1=O (centres undefined),inactive: 73%
12,COc1ccc(CCNC(=O)CN(c2ccccc2)S(=O)(=O)N(C)C)cc1,inactive: 72%
13,COc1ccccc1-c1nn(CCC(=O)Nc2ccccc2)c2nc(C)cc(C)c12,inactive: 86%
14,Cc1ccc2nc(-c3ccc(C)s3)c(Nc3ccc4c(c3)OCCO4)n2c1,inactive: 83%
15,O=C(CN(c1ccc2c(c1)OCCO2)S(=O)(=O)c1ccccc1)NCc1ccco1,inactive: 111%
16,CCN(CC)CCNC(=O)c1cc2c(-c3cccc(OC)c3)nn(C)c2s1,inactive: 121%
17,O=C(N/N=C1/CSC(=O)N1Cc1cccs1)c1cccs1,inactive: 112%
18,Cc1ccc2[nH]cc(C(c3ccccc3)c3ccc(Cl)s3)c2c1 (centres undefined),inactive: 18%
19,Cc1nn(C(C)C(=O)NCc2ccco2)c(=O)c2nn(-c3ccccc3)c(C)c12 (centres undefined),inactive: 32%
20,Cc1cccc2sc(N(Cc3cccnc3)C(=O)c3ccco3)nc12,inactive: 72%
21,COc1ccccc1OCC(=O)NCCS(=O)(=O)N1CCN(c2ccccc2OC)CC1,inactive: 72%
22,CCOc1ccccc1NC(=O)Cn1c(=O)n(CCCC(=O)NCc2ccc(C)cc2)c(=O)c2ccccc21,inactive: 83%
23,CCOC(=O)C1=C(SCC)c2cc3c(n2C1=O)CCCC3,inactive: 106%

row,SMILES,survival
1,Cc1ccc(C(=O)N2CCN(CCc3ccncc3)CC2)cc1,inactive: 88%
2,CN1C(=O)c2ccccc2Sc2ccc(NC(=O)N3CCN(c4ccc(F)cc4)CC3)cc21,inactive: 55%
3,COc1ccc(NC(=O)C(NS(=O)(=O)c2cccc3nsnc23)C(C)C)cc1OC (centres undefined),inactive: 83%
4,COc1ccc(-c2nc(S(=O)(=O)c3ccccc3)c(N3CCC(C)CC3)o2)cc1,inactive: 89%
5,COc1ccc(S(=O)(=O)Nc2cccc(-c3ccc(N4CCCCC4)nn3)c2)cc1F,inactive: 99%
6,O=C(CN1CCN(c2ccccn2)CC1)N(c1ccccc1)c1ccc2ccccc2c1,inactive: 110%
7,CC1(C)Oc2ccc(C(=O)N/N=C/c3cccs3)cc2NC1=O,inactive: 101%
8,Oc1ccc(NCc2ccccc2OCc2ccccc2)cc1,inactive: 100%
9,CCOc1ccc(CNC(=O)c2cc3cc(S(=O)(=O)N4CCCCC4)ccc3n2C)cc1,inactive: 85%
10,COC(=O)C1=CN(CCCN2CCCC2=O)C=C(C(=O)OC)C1c1cccs1,inactive: 98%
11,O=C1CCCc2oc3c(c21)CCCC3,inactive: 107%
12,Cc1ccc(Cl)cc1-n1c(SCC(=O)NCc2ccccc2)nc2n[nH]c(C)c2c1=N,inactive: 72%
13,CSc1ccc(CCNC(=O)CN2C(=O)COc3ccc(S(=O)(=O)N4CCCCCC4)cc32)cc1,inactive: 77%
14,CC(C)N(C(=O)Cn1c(-c2cccnc2)ccc(C#N)c1=O)C(C)C,inactive: 115%
15,COc1ccc(C(=O)NCCc2csc(-c3ccc(Cl)cc3)n2)c(OC)c1,inactive: 74%
16,O=C(CN1c2ccc(Br)cc2-c2ccccc2S1(=O)=O)N1CCCCC1,inactive: 93%
17,CC(=O)Nc1c(C)nn(-c2ccccc2)c1N1CCC(C(=O)Nc2ccccc2C(F)(F)F)CC1,inactive: 82%
18,Cc1ccc(NC(=O)N2CCN(Cc3nc4ccc(C)cc4o3)CC2)cc1,inactive: 119%
19,COc1cccc(Nc2nc3c(S(=O)(=O)c4cc(C)ccc4C)nnn3c3ccsc23)c1,inactive: 92%
20,Cc1cc(C)c(NC(=O)CSC2=Nc3ccccc3C3=NC(CC(=O)NCc4cccs4)C(=O)N23)c(C)c1 (centres undefined),inactive: 76%
